This note sets out measurements from article PMC4336329 (PLoS ONE, 2015).

Each structure is given as a SMILES string. Among all 310,000 compounds or so, about 2,200 (0.71%) showed an effect of 50% or more. The effect is printed as a negative number. The list shows a part of the results.

human ether-à-go-go-related gene (hERG) potassium channel, sequence (Q12809 whole entry, looked up): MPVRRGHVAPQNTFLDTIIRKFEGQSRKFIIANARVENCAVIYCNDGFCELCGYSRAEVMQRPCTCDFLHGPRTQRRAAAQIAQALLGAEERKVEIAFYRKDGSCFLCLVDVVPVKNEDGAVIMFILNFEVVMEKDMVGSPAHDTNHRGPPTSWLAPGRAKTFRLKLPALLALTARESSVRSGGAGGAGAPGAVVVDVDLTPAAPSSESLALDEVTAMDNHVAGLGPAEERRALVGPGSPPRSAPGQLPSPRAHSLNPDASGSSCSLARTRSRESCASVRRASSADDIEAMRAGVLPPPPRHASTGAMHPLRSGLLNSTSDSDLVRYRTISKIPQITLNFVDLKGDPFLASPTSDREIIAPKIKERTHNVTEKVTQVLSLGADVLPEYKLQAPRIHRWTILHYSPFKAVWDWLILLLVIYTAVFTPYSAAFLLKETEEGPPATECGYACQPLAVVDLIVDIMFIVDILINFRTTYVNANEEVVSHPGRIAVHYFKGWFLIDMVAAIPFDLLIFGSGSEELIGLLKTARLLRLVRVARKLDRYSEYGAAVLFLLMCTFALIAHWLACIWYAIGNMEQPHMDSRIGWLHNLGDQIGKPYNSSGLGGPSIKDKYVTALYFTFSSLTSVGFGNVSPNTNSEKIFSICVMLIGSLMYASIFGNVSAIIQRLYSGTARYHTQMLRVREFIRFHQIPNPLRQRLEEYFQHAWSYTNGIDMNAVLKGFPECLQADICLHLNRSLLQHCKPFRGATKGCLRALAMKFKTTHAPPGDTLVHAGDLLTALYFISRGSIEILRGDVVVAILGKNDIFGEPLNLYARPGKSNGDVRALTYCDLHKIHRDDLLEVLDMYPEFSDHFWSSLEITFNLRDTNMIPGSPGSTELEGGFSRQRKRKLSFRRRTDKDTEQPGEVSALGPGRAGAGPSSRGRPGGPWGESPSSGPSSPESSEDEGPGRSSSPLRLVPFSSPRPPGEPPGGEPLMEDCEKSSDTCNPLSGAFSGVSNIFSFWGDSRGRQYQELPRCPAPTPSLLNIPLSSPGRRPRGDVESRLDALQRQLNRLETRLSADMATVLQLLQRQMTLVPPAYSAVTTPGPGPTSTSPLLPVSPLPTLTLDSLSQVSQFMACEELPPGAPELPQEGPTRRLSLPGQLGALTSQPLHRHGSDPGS

This assay addresses human ether-à-go-go-related gene (hERG) potassium channel (human, UniProt Q12809). The assay can be described thus: primary screen, population patch clamp on CHO cells stably expressing hERG.
On to `CCCCC(=O)Oc1cc(C)[nH]c(=O)c1[N+](=O)[O-]`, for which the “hERG current change (%, negative = inhibition) at 1uM” value is on record as 11.4%. As for `COc1cccc(NC(=O)CN(C)C(=O)c2oc3c(ccc4ccccc43)c2C)c1`, the “hERG current change (%, negative = inhibition) at 1uM” value is -3.42%. As for `CCN(CC(=O)Nc1c(C(=O)OC)[nH]c2ccccc12)c1ccc2c(c1)OCO2`, the “hERG current change (%, negative = inhibition) at 1uM” value came to 12.1%. The figure for `COCCNC(=O)/C(C#N)=C/c1ccc(C(=O)O)cc1` is 18.9%; for `Oc1c(Br)cc(Br)c(/C=N/n2c(-c3ccccc3)n[nH]c2=S)c1Br` it is 13.6%. The figure for `CCOC(=O)CSc1nc(C)[nH]c1[N+](=O)[O-]` is 8.39%; for `CCCNC(=O)C(=O)NCC1CCCN1CC` (centres unmarked) it is 10%; for `Cc1ccc(C(=O)N/C(=C\c2cn(C)c3ccccc23)C(=O)NCCCn2ccnc2)cc1` it is 13.5%. As to `O=C(Cc1n[nH]c(=O)c2ccccc12)OCc1c(Cl)cccc1Cl`, the “hERG current change (%, negative = inhibition) at 1uM” value was 14.5%. The same measure for `CNC(=O)c1c(Br)cnn1-c1ccc(C)cc1`: 14.1%.

Turning to `Cc1ccc(Cn2c(C)cc3c(c2=O)C(c2cccs2)C(C#N)=C(N)O3)cc1` (centres unmarked), the “hERG current change (%, negative = inhibition) at 1uM” value amounted to 11.8%. The same measure for `CCN1CCN(S(=O)(=O)c2ccc3c(c2)NC(=O)CS3)CC1`: 25.4%. The figure for `COCCn1c(C)c(C)c(S(=O)(=O)c2ccccc2)c1N` is 13.2%; for `N=C1SCC(=O)N1/N=C/c1ccccc1` it is 13%; for `CCOC(=O)N1CCN(C(=O)CSc2nnc(-c3c[nH]c4ccccc34)n2CCOC)CC1` it is 14.3%. Take `CCOC(=O)c1ccccc1NC(=O)Cn1cnc2c(nnn2-c2ccc(C)cc2)c1=O`: the “hERG current change (%, negative = inhibition) at 1uM” value is given as 10.7%. The same measure for `CCOC(=O)C(NCc1ccccc1OC)(NC(C)=O)C(F)(F)F` (centres unmarked): 18.2%; for `COc1ccc(Nc2nc(-c3ccccc3)c3ccccc3n2)cc1`: 2.9%. `CCCCNC(=O)Oc1cccc(N2CCCC2=O)c1`: the “hERG current change (%, negative = inhibition) at 1uM” value was 10.4%. The figure for `CC(=O)c1ccc(N=Cc2c(O)n(-c3cc(Cl)ccc3N3CCOCC3)c(=O)c3ccccc23)cc1` is 13%. As for `O=C(C1CCCN(S(=O)(=O)c2ccc(F)cc2)C1)N(Cc1cccs1)C1CC1` (centres unmarked), the “hERG current change (%, negative = inhibition) at 1uM” value amounted to 5.65%.

For `C/C(=N\O)C1(C)N(O)C(C)(C)C(c2ccc(Br)cc2)=[N+]1[O-]` (centres unmarked), the “hERG current change (%, negative = inhibition) at 1uM” value was 7.33%. The same measure for `Cc1c(-c2ccc(F)cc2)nc(N)c(C#N)c1-c1cccs1`: -1.93%. Take `COc1ccc(CCC(=O)NNC(=O)Nc2ccc(OC)c(OC)c2)cc1`: the “hERG current change (%, negative = inhibition) at 1uM” value stood at 6.62%.

In the case of `COc1ccccc1/C=C/C(=O)NC(=S)Nc1ccccn1`, the “hERG current change (%, negative = inhibition) at 1uM” value amounted to 18.9%. The figure for `CCOC(=O)c1[nH]c2ccccc2c1NC(=O)CC(C)(C)C` is 0.705%; for `CCOc1cc(CNn2nnnc2N)ccc1OCC(=O)NC(C)(C)C` it is 5.71%. The same measure for `COC(=O)c1ccc(N(CC(=O)NC2CCCC2)C(=O)CNC(=O)c2cccs2)cc1`: 9.62%; for `O=C(Nc1ccc2[nH]ccc2c1)c1ccc(F)cc1`: 11%.

On to `CCCc1cc(=O)[nH]c(SCCOc2ccc(Cl)cc2)n1`, for which the “hERG current change (%, negative = inhibition) at 1uM” value stood at 11.9%.

As for `O=C1CN(C(=O)COC(=O)CCCOc2ccccc2)c2ccccc2N1`, the “hERG current change (%, negative = inhibition) at 1uM” value is on record as 1.08%. For the compound `COc1ccc(CNC(=O)[C@H](C)NC(=O)C2CC(=O)N(c3ccc4c(c3)OCO4)C2)cc1` (some centres unmarked), the “hERG current change (%, negative = inhibition) at 1uM” value turned out to be 15.9%. The figure for `O=C1Nc2ccccc2/C1=C/c1cnc(-c2ccccc2)[nH]1` is 20.1%.

As for `COc1cc2c(cc1OC)CN(c1ccc3ccccc3n1)CC2`, the “hERG current change (%, negative = inhibition) at 1uM” value was determined as 15.9%. The figure for `CC(C)CCn1cnc2c(cnn2-c2ccc(Cl)cc2)c1=O` is 6.99%; for `Cc1ccc(-c2csc(NC(=O)c3ccc(S(=O)(=O)N4CCc5ccccc54)cc3)n2)cc1` it is 14.3%.

For the compound `O=C(NNC(=O)c1sccc1-n1cccc1)c1cccc(Cl)c1`, the “hERG current change (%, negative = inhibition) at 1uM” value worked out at 6.74%. The figure for `COc1ccc(CCN(C)CC(O)COc2ccc(C(C)=O)cc2OC)cc1OC` (centres unmarked) is 8.67%; for `CCc1ccc(Cn2nnc(C(=O)Nc3cccc(C)c3)c2N)cc1` it is 8.33%. Turning to `Cc1ccsc1C=Nc1c(C)n(C)n(-c2ccccc2)c1=O`, the “hERG current change (%, negative = inhibition) at 1uM” value turned out to be 12.9%. The figure for `O=C(CN1C(=O)c2ccccc2S1(=O)=O)NCc1cccnc1` is 4.24%; for `CCOC(=O)c1cc(S(=O)(=O)N2CCN(C3CCCCC3)CC2)cn1C` it is 11.3%. The figure for `COc1ccc(-c2nc3cccc(C)n3c2NCC2CCCO2)cc1O.Cl` (centres unmarked) is -6.9%. The same measure for `Cc1nnc2sc(SCc3ccc(Cl)cc3)nn2c1=O`: 10.8%.
